The record followed here is PMC4336329 (PLoS ONE, 2015).

In all, about 310,000 compounds went through this assay and about 14,000 (4.5%) showed an effect of 50% or more. The effect is printed as a negative number. The list shows a part of the results.
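Note: peak tail current of the secondary pulse compared with the same well before compound.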

human ether-à-go-go-related gene (hERG) potassium channel, sequence (Q12809 whole entry, looked up): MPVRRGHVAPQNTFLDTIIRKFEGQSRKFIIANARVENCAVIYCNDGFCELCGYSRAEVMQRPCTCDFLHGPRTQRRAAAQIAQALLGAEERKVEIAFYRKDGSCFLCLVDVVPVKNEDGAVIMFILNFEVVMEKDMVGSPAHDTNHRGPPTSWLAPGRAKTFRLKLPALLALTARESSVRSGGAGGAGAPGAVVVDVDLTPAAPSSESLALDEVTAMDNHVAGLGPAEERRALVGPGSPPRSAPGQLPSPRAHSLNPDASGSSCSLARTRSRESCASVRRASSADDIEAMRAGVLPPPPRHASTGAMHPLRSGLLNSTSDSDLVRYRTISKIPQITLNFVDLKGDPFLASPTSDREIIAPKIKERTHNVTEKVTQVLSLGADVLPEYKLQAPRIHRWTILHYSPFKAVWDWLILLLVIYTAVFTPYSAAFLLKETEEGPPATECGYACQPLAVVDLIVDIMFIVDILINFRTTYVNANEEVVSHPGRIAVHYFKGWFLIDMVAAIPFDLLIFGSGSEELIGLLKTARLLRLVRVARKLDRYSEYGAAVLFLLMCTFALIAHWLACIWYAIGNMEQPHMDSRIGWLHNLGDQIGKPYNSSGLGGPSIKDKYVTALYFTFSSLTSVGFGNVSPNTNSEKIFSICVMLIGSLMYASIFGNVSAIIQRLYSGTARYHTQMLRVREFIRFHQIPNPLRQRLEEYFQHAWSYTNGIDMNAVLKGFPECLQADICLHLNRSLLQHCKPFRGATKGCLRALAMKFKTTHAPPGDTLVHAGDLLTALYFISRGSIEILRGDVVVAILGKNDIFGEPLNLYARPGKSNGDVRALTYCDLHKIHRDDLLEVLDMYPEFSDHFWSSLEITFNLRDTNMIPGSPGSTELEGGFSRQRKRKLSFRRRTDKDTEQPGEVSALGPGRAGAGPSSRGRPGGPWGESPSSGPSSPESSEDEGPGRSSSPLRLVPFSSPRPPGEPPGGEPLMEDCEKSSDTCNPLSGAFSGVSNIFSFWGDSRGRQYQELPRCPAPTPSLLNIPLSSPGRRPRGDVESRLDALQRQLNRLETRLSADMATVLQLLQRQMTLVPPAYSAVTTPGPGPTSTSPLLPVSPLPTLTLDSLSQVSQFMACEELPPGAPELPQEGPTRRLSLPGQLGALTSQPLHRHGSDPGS

This assay addresses human ether-à-go-go-related gene (hERG) potassium channel (human, UniProt Q12809). Briefly: primary screen, population patch clamp on CHO cells stably expressing hERG.
For the compound `O=C(CN1C(=O)c2ccccc2S1(=O)=O)N1CCN(Cc2ccc3c(c2)OCO3)CC1`, the “hERG current change (%, negative = inhibition) at 10uM” value is given as -12.8%. As for `CC(C)(C)c1ccc(C(=O)c2c[nH]c(C(=O)O)c2)cc1`, the figure is 8.49%; as for `CCOc1ccc(CNC(=O)C(=O)c2cn(CC(=O)N3CCOCC3)c3ccccc23)cc1OC`, 17.1%. Turning to `O=c1nc2ccccc2c2n1CC(CN1CCN(c3ccccc3F)CC1)N2` (stereo not drawn), the “hERG current change (%, negative = inhibition) at 10uM” value is -50.3%. As for `O=C(CSc1ncccn1)NC1CCS(=O)(=O)C1` (stereo not drawn), the figure is 4.98%; as for `COc1ccc(-c2noc(CCC(=O)N3CCN(c4cc(C)ccc4C)CC3)n2)cc1`, -4.34%. In the case of `CC(C)[C@H](NC(=O)c1ccccc1)C(=O)OCC(=O)N1CC2(C)CC1CC(C)(C)C2` (stereo partly drawn) it was -17.2%. In the case of `Cc1ccc(C(=O)NCCSc2snnc2C)cc1` it was 17.6%; in that of `Cc1cc(C)cc(C(=O)NCC(=O)OCC(=O)NCc2ccco2)c1`, 22.8%. As to `O=C(Nc1ccccc1N1CCN(c2ccccc2)CC1)C12CC3CC(CC(C3)C1)C2`, the “hERG current change (%, negative = inhibition) at 10uM” value is -3.41%. As for `O=C(NCc1ccccc1)c1nc2ccccc2s1`, the figure is -26.3%; as for `COc1ccc(/C(N)=N/OC(=O)c2cccc([N+](=O)[O-])c2)cc1`, -2.06%; as for `c1cncc(Nc2nc(-c3cccnc3)cs2)c1`, 1.98%. As for `CC1C(=O)N2CCCc3cc(NC(=O)COc4ccccc4)cc1c32` (stereo not drawn), the “hERG current change (%, negative = inhibition) at 10uM” value is on record as -22.4%.

Consider `CCOc1ccccc1OCC(=O)NNC(=O)Cn1cnc2c1c(=O)n(C)c(=O)n2C`, for which the “hERG current change (%, negative = inhibition) at 10uM” value is 23.4%. In the case of `Cc1cc(C)cc(NC(=O)CSc2nnc(CNC(=O)c3ccco3)o2)c1` it was -19.9%; in that of `Cc1ccc(C(=O)NCc2ccco2)cc1S(=O)(=O)Nc1cccc(Cl)c1`, -38.3%.

In the case of `CCNC(=O)NC(=O)C(C)OC(=O)c1oc2ccc(OC)cc2c1C` (stereo not drawn), the “hERG current change (%, negative = inhibition) at 10uM” value is given as 11.8%. As for `CC1=C(C)CC(C(=O)Nc2nc(-c3ccc(F)cc3)c(C)s2)C(C(=O)O)C1` (stereo not drawn), the figure is 19.1%; as for `O=C(NCCc1ccccc1)[C@@H]1CC=C[C@@H]2CCN(C3CCCCC3)C(=O)[C@@H]21`, 10.5%. Consider `O=C(Nc1ccccc1)/C(=C/c1ccc2c(c1)OCO2)NC(=O)c1ccco1`, for which the “hERG current change (%, negative = inhibition) at 10uM” value was determined as 7.14%. In the case of `CS(=O)(=O)c1ccc(Cl)c(NC(=O)COC(=O)/C=C/c2cnc3ccccc3n2)c1` it was 14.6%; in that of `O=C(CSc1nnc(NC2CCCCC2)s1)N1CCOCC1`, 2.99%. `COc1ccc(-c2nn(C)c3sc(C(=O)N4CCOCC4)cc23)cc1OC`: the “hERG current change (%, negative = inhibition) at 10uM” value was -2.95%. As for `COc1ccc(Cl)cc1NC(=O)C1CCN(C(=O)Nc2ccccc2)CC1`, the “hERG current change (%, negative = inhibition) at 10uM” value is recorded as -4.23%.

Take `C=CCn1c(SCC(=O)N2c3ccccc3Sc3ccccc32)nnc1-c1ccco1`: the “hERG current change (%, negative = inhibition) at 10uM” value is -10.3%. Consider `O=S(=O)(NCC(c1cccnc1)N1CCc2ccccc2C1)c1ccccc1` (stereo not drawn), for which the “hERG current change (%, negative = inhibition) at 10uM” value was 10.3%.

As to `Cc1ccc(CNc2nc(-c3cccs3)nc3ccccc23)cc1`, the “hERG current change (%, negative = inhibition) at 10uM” value was 12.1%. For `O=C(NCCO)/C(=C\c1ccc([N+](=O)[O-])o1)NC(=O)c1ccccc1`, the “hERG current change (%, negative = inhibition) at 10uM” value stood at 1.55%. In the case of `COc1ccc(-c2cc(-c3ccccc3)c(C#N)c(S(C)=O)n2)cc1` (stereo not drawn), the “hERG current change (%, negative = inhibition) at 10uM” value is -6.13%. With `Cc1cc(OC(C)C(=O)NC(Cc2c[nH]c3ccc(O)cc23)C(=O)O)c2c(C)c(C)c(=O)oc2c1` (stereo not drawn), the “hERG current change (%, negative = inhibition) at 10uM” value is reported as -16.2%. Take `O=C(c1cc(Cl)ccc1OCc1ccccc1)N1CCOCC1`: the “hERG current change (%, negative = inhibition) at 10uM” value is -8.81%. `CCCCCn1c(N)c(-c2nc3ccccc3o2)c2c([N+](=O)[O-])nn(C)c(=O)c21`: the “hERG current change (%, negative = inhibition) at 10uM” value was determined as 22.8%. In the case of `Cc1cc(C(F)F)n2nc(C(=O)Nc3ccccc3F)nc2n1` it was 14.5%.

In the case of `Cc1ccc(CNS(=O)(=O)c2cn(C)cn2)cc1`, the “hERG current change (%, negative = inhibition) at 10uM” value is on record as -33.8%. In the case of `CCOC(=O)c1cc(C(=O)OCC)cc(-n2c(C)cc(C(=O)CN3CCOCC3)c2C)c1` it was -23.4%.

Turning to `C=CCN1C(=O)C2(OCCCO2)c2cc(C)ccc21`, the “hERG current change (%, negative = inhibition) at 10uM” value is given as 10.5%.

Take `CN1CCN(CC#CCC2(O)c3ccccc3-c3ccccc32)CC1`: the “hERG current change (%, negative = inhibition) at 10uM” value was 29.2%. As for `O=C(NNC(=S)Nc1ccc(Cl)c(Cl)c1)c1ccccn1`, the figure is 63.6%; as for `CCC(=O)c1cn(CC(=O)Nc2ccc(OC)cc2)c2ccccc12`, -0.605%; as for `Cc1[nH]c2ccccc2c1C(=O)COC(=O)CCS(=O)(=O)c1ccccc1Cl`, -14.4%. Turning to `Cc1ccc(SCC(=O)NNC(=O)c2ccccc2)cc1C`, the “hERG current change (%, negative = inhibition) at 10uM” value is reported as 19.8%. In the case of `COc1ccc(NC(=O)CSc2nc3[nH]c(=O)cc(O)c3s2)c(OC)c1` it was 7.66%; in that of `CC(C)(C)NC(=O)CN(Cc1cccs1)C(=O)C1COc2ccccc2O1` (stereo not drawn), -14.7%; in that of `Cc1cc(C)n2nc(-c3cnn(C)c3C(F)(F)F)c(Cl)c2n1`, -11.2%. For the compound `COc1ccc(C(=O)C[n+]2ccccc2C)cc1.[Br-]`, the “hERG current change (%, negative = inhibition) at 10uM” value is on record as 13.3%. Consider `O=C(CN1C(=O)NC2(CCCCC2)C1=O)Nc1cccc(S(=O)(=O)N2CCOCC2)c1`, for which the “hERG current change (%, negative = inhibition) at 10uM” value is 4.29%.

On to `COC(=O)c1cn(NC(=O)C2CCC(C)CC2)c(=O)c2ccccc12` (stereo not drawn), for which the “hERG current change (%, negative = inhibition) at 10uM” value turned out to be 16.8%. As for `C=CCNS(=O)(=O)c1cc2c3c(c1)CCN3C(=O)CC2`, the figure is 18.1%; as for `Cc1ccc(N2CCN(C(=O)CNS(=O)(=O)c3ccc(Br)s3)CC2C)cc1` (stereo not drawn), -15.8%; as for `CN1c2ccccc2N(C)C1c1ccc2c(c1)OCO2`, 14.2%. In the case of `O=C(O)CC1(CC(=O)NCc2ccc(C(F)(F)F)cc2)CCCCC1` it was 5.6%; in that of `CCOc1cc(/C=C(\C#N)C(=O)NCC2CCCO2)ccc1O` (stereo not drawn), -3.03%; in that of `CCCN(CCC)C(=S)Nc1cc(C(=O)OC)ccc1C(=O)OC`, -38.2%. As for `CCN(CC(=O)Nc1c(F)cccc1F)C(=O)c1cnc(C)cn1`, the figure is 3.9%. As to `COCCNC(=O)c1ccc(NS(=O)(=O)c2ccc3[nH]c(=O)[nH]c3c2)cc1`, the “hERG current change (%, negative = inhibition) at 10uM” value was found to be 23.9%. In the case of `CCC(C)(C(=O)NC1CCCCC1)N(C(=O)c1cnccn1)c1c(C)n(C)n(-c2ccccc2)c1=O` (stereo not drawn), the “hERG current change (%, negative = inhibition) at 10uM” value is given as -4.76%.

In the case of `Cc1ccc(C(=O)NC2CCN(S(=O)(=O)c3ccccc3)CC2)cc1`, the “hERG current change (%, negative = inhibition) at 10uM” value was 13.1%. For `COc1ccccc1CN1C[C@@H]2C[C@@H](c3cccc(C)n3)N3CCC[C@@]23C1=O`, the “hERG current change (%, negative = inhibition) at 10uM” value is listed as -4.91%.

As for `O=C(COc1ccc(F)cc1)Nc1c(C(=O)N2CCC(N3CCCCC3)CC2)oc2ccccc12`, the “hERG current change (%, negative = inhibition) at 10uM” value is given as -81.1%. In the case of `COc1ccccc1-c1nnc2sc(COc3ccc(Cl)cc3Cl)nn12` it was -11.6%. As for `CCCCn1c(O)c(C(C)=NCCCN(C)C)c(=O)[nH]c1=O`, the figure is 3.15%.

In the case of `O=c1c(-c2ccc(Br)cc2)[n+]([O-])c2ccccc2n1OCc1ccccn1`, the “hERG current change (%, negative = inhibition) at 10uM” value is listed as 2.87%. As to `CCOc1ccc(N(CC(=O)NC2CC2)S(=O)(=O)c2ccc(C)cc2)cc1`, the “hERG current change (%, negative = inhibition) at 10uM” value is 27.4%.

For the compound `O=C(Cn1c2ccccc2c2nc3n(c(=O)c21)CCCS3)Nc1ccccc1`, the “hERG current change (%, negative = inhibition) at 10uM” value is recorded as 1.09%. As for `COc1ccc(OCc2cc(C(=O)NCc3cccc(C)n3)no2)c(Cl)c1`, the figure is -11.9%. With `CCN(C(=O)c1cc2cccc(OC)c2oc1=O)C1CCCCC1`, the “hERG current change (%, negative = inhibition) at 10uM” value was -9.14%. As for `COc1cc(C(=O)OCC(=O)NC2CCCCCC2)ccc1OCC(C)C`, the figure is 17.3%; as for `CCN(CC(=O)Nc1cccc(OC)c1)C(=O)c1ccncc1`, 9.73%; as for `COc1ccc(OCCSc2nnc(-c3cccnc3)n2N)cc1`, 12.5%.

Regarding `CCOc1ccc(S(=O)(=O)N2CCCC(C(=O)NC3CC3)C2)cc1Cl` (stereo not drawn), the “hERG current change (%, negative = inhibition) at 10uM” value was 1.72%. As for `CCCCOc1ccc(OC(=O)c2cccnc2)cc1`, the figure is 6.59%; as for `COc1ccc2sc(-c3ccc(N(C)C)cc3)c(C#CCO)c2c1`, 14.3%. As for `O=c1c(Cc2c(F)cccc2Cl)c(O)ccn1CC1CCCO1` (stereo not drawn), the figure is 13.8%. Turning to `CN=C1SC(CC(=O)Nc2cc(Cl)ccc2Cl)C(=O)N1C` (stereo not drawn), the “hERG current change (%, negative = inhibition) at 10uM” value was -2.84%.

Take `O=C(Oc1ccccc1N1C(=O)CCC1=O)c1ccco1`: the “hERG current change (%, negative = inhibition) at 10uM” value is 1.62%.

`COc1ccc2c(c1)c1nnc(SC)nc1n2C`: the “hERG current change (%, negative = inhibition) at 10uM” value is reported as -5.31%. As for `CCCn1nnc(NC(=O)c2cc3ccccc3o2)n1`, the figure is 9.37%; as for `COC(OC)c1ccnc(-c2ccc(OC(C)=O)cc2)n1`, 51.2%; as for `CCOC(=O)C1(CCOc2ccccc2)CCN(Cc2cccn2-c2ncccn2)CC1`, -76.4%.

On to `COc1cc(/C=N/NC(=O)c2cccc(NC(=O)c3ccccc3Cl)c2)ccc1O`, for which the “hERG current change (%, negative = inhibition) at 10uM” value is recorded as -55.6%. As for `C=CCN=c1scc(-c2ccco2)n1/N=C/c1ccc(O)c(O)c1O`, the figure is 10.2%; as for `CC1(C)Cc2c(sc3c2c2ncnn2c2nnc(SCC(=O)NCc4ccco4)n32)CO1`, -22%; as for `CC(C)(C)c1ccc(C(=S)N2CCN(c3ccccc3)CC2)cc1`, 12%.

In the case of `COc1ccc2nc(NC3=NC(C(=O)Nc4ccc(C)cc4)CC(=O)N3)nc(C)c2c1` (stereo not drawn), the “hERG current change (%, negative = inhibition) at 10uM” value was -0.668%. In the case of `Cc1ccc(NC(=O)CSc2nc3[nH]ncc3c(=O)[nH]2)cc1` it was 5.75%; in that of `COC(=O)C1=C(c2cccc(C#N)c2)C[C@@H]2CC[C@H]1N2C(=O)NCCOc1ccccc1`, -10.3%.
